From ChEMBL document CHEMBL1201862, “PubChem BioAssay data set” (2004) come the findings set out here.

SMILES strings stand for the structures.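 Protocol summary: plate cells (96-well), add compound at 5 concentrations, incubate 48 h, interpolate endpoints linearly. The concentration for 50% growth inhibition is given as GI50.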 Calls of active or inactive are those of the source. Rule as the data show it: active = GI50 up to about 1.1 µM and inactive = higher.

The subject of the assay is NCI-H322M. Put plainly: NCI-60 cell line screen, 48 h.
In the case of `O=c1c2ccccc2oc2nc3n(c(=O)c12)CCCS3`, the GI50 is inactive: > 100 µM.

For `C=CC[C@@H]1C(=O)[C@@]2(O[Si](C(C)C)(C(C)C)C(C)C)CC[C@@H]1C[C@H]2NC(=O)OCC(Cl)(Cl)Cl`, the GI50 is inactive: > 100 µM.

Consider `Clc1cccc(Cl)c1C1SCc2nc3ncccc3n21` (centres undefined), for which the GI50 is inactive: > 100 µM.

In the case of `CC1(C)OC(=S)N(c2ccccc2)C12C=Cc1cc3ccccc3cc1O2` (centres undefined), the GI50 is inactive: > 100 µM.

`C1CSCCSCCCSCCSCCCSCCSCCCSCCSC1`: the GI50 was inactive: > 100 µM.

Turning to `Cc1csc(NC23CC4CC(CC(C4)C2)C3)[n+]1C(P(=O)([O-])O)P(=O)(O)O` (centres undefined), the GI50 was inactive: > 100 µM.

Consider `Cc1ccc(S(=O)(=O)OCC23CCC(CC2)C2CC23)cc1` (centres undefined), for which the GI50 was inactive: 95.3 µM.

Take `CC(=O)Oc1cc2c(cc1OC(C)=O)OCC(c1ccccc1)C2` (centres undefined): the GI50 is inactive: 34.4 µM.

For `COC(=O)/C=C/c1ccc2c(c1)CC1(C2)Cc2cc3c(cc2C1=O)CCC3` (centres undefined), the GI50 was inactive: > 100 µM.

`CCCCCCC(=O)CC(=O)C(=O)Nc1ccccc1C`: the GI50 was inactive: > 78.5 µM.

On to `C[C@]12CCC(N3CCCC3)CC1=CC[C@@H]1[C@@H]2CC[C@]2(C)C(O)[C@H](n3ccnc3)C[C@@H]12` (some centres undefined), for which the GI50 is inactive: > 100 µM.

Consider `O=C1CCc2c3c(c4c([nH]c5ccccc54)c2CC1)C(=O)NC3=O`, for which the GI50 was inactive: 14.8 µM.

For `FC(F)(F)c1nc(Br)[nH]c1C(F)(F)F`, the GI50 was inactive: > 100 µM.

As for `CS(=O)(=O)c1ccc(/N=C/C=C/Nc2ccc(S(C)(=O)=O)cc2)cc1`, the GI50 was inactive: > 100 µM.

For `COc1ccc(CC(N)c2ccc(OC)cc2)cc1` (centres undefined), the GI50 is inactive: > 100 µM.

As for `Nc1cccc(/C=C/CN2CCN(CCOC(c3ccccc3)c3ccccc3)CC2)c1`, the GI50 is inactive: 14.2 µM.

In the case of `Cc1cc2nc(C=C(C(F)(F)F)C(F)(F)F)oc2cc1C`, the GI50 is inactive: 2.2 µM.

On to `CCN(C(=S)N[C@@H](Cc1ccccc1)C(=O)N[C@@H](CC(C)C)C(=O)OC)c1ccccc1`, for which the GI50 is inactive: > 100 µM.

As for `C[C@@H]1O[C@@H]2OCC[C@@H]2C2=C1C(=O)c1ccccc1C2=O`, the GI50 was inactive: 15.6 µM.

For the compound `COc1ccc(/C=c2/sc3n(c2=O)NC2(CCCCC2)NN=3)cc1`, the GI50 was inactive: > 100 µM.

With `OC(C1CCCC1=N/N=C1/CCCC1C(O)(C(F)(F)Cl)C(F)(F)Cl)(C(F)(F)Cl)C(F)(F)Cl` (centres undefined), the GI50 was inactive: > 10 µM.

As for `Brc1ccc2c(c1)-c1nc3c(cc1CC2)CCc1ccc(Br)cc1-3`, the GI50 is inactive: > 100 µM.

In the case of `COc1cc(Br)cc2cc(-c3cn4ccsc4n3)c(=O)oc12`, the GI50 was inactive: 36.1 µM.

In the case of `N#CC1=C(N)OC2=C(CCCc3ccccc32)C1c1ccc([N+](=O)[O-])cc1` (centres undefined), the GI50 is inactive: 21.3 µM.

Turning to `O=c1[nH]cnc2c(COCCO)c[nH]c12`, the GI50 was inactive: > 100 µM.

Take `Cc1ccc(/C=C/C(=N/NC(=O)N/N=C(/C=C/c2ccc(C)cc2)C(C)C)C(C)C)cc1`: the GI50 was inactive: > 10 µM.

Turning to `c1ccc(-c2cc(-c3cc(-c4ccccc4)no3)on2)cc1`, the GI50 was inactive: > 100 µM.

Turning to `CC(=O)N1CC(C)(C)c2c1cc(C)c(O)c2C`, the GI50 is inactive: > 100 µM.

`CCC(CC)NC1=C(NC(C)=O)C(=O)c2ccccc2C1=O`: the GI50 was inactive: > 50 µM.

Regarding `COc1ccc2c(c1)N=C1CSC(c3ccccc3Cl)N1C2` (centres undefined), the GI50 is inactive: 15.3 µM.

Consider `O=[N+]([O-])c1cccc([N+](=O)[O-])c1S(=O)(=O)c1ccccc1`, for which the GI50 is inactive: 19.2 µM.

In the case of `C=C1CC2OC2(C(=O)O[C@H]2CCC3[C@@H]4CCC5=CC(=O)CC[C@]5(C)C4CC[C@@]32C)C1=O` (some centres undefined), the GI50 was inactive: 17 µM.

In the case of `CCOc1ccc(/C=C(\Cl)c2ccc(OC)cc2)cc1`, the GI50 is inactive: > 100 µM.

Turning to `CCOC1CN(C)/C(=N\c2cccc3ccccc23)S1` (centres undefined), the GI50 was inactive: > 10 µM.

In the case of `C/C=C(/CBr)CCC(Br)C(C)(C)Cl.C/C=C(\CBr)CCC(Br)C(C)(C)Cl` (centres undefined), the GI50 was inactive: > 10 µM.

Take `CN(C)c1ccc(/C=N\NC(=O)CSCC(=O)N/N=C/c2ccc(N(C)C)cc2)cc1`: the GI50 is inactive: 31.2 µM.

Consider `Cn1c2ccccc2c(=O)c2c(O)cc3c(c21)C=CC1(CCCC1)O3`, for which the GI50 is inactive: > 100 µM.

For `COC(=O)CC1C2CC3C(C2=O)C13` (centres undefined), the GI50 is inactive: > 100 µM.

For the compound `O=C(CSc1nc2ccccc2c(=O)n1-c1ccccc1)N/N=C1\C(=O)Nc2ccc(Br)cc21`, the GI50 is inactive: 2.92 µM.

As for `CSc1ccsc1-c1sc(-c2cc(SC)c(-c3sc(-c4cc(SC)c(-c5sccc5SC)s4)cc3SC)s2)cc1SC`, the GI50 is inactive: > 100 µM.

Consider `O=C1Nc2ccccc2/C1=N/Nc1ccc([N+](=O)[O-])cc1`, for which the GI50 is inactive: 25.3 µM.

Consider `COc1ccc2c(c1)N=C1CSC(c3c(Cl)cccc3[N+](=O)[O-])N1C2` (centres undefined), for which the GI50 was inactive: 60.7 µM.

For `CC(=O)c1c2c(cc3c1CC1(Cc4ccccc4C1=O)C3)CCC2` (centres undefined), the GI50 is inactive: 24.7 µM.

`COc1ccc(/C=N/c2ccc(-c3nc4ccccc4s3)cc2)cc1OC`: the GI50 is inactive: 43.4 µM.

As to `O=c1[nH]n(CCc2ccccc2CCl)c2ccc([N+](=O)[O-])cc12`, the GI50 is inactive: > 100 µM.

Consider `CCCc1cc(=O)oc2c(C=O)c(O)cc(O)c12`, for which the GI50 is inactive: 24.9 µM.

`CC1(Cl)C(=O)NC(=O)N(C2CC(N=[N+]=[N-])C(CO)O2)C1N=[N+]=[N-]` (centres undefined): the GI50 was inactive: > 100 µM.

As for `C=C1CCCCCCCCCCC12SCCC2CCCCSC` (centres undefined), the GI50 is inactive: 32.2 µM.

With `NCCCNCCCCN1CCOC1=O`, the GI50 is inactive: > 100 µM.

For the compound `Cc1c(C)c([N+](=O)[O-])c2c(c1N)C(=O)c1ccccc1C2=O`, the GI50 was inactive: > 100 µM.

In the case of `CC(=O)OCC(OC(C)=O)C(OC(C)=O)C(OC(C)=O)C(C=NN(C(C)=O)S(=O)(=O)c1ccc(/C=C2\NC(=O)N(C)C2=O)cc1)OC(C)=O` (centres undefined), the GI50 was inactive: 53.8 µM.

Take `COc1ccc(/C=C/C(=O)c2sc(NC(=S)NC(=O)c3ccc(Cl)cc3)nc2C)cc1OC`: the GI50 is inactive: 59.3 µM.

Take `O=C(Nc1ccc([N+](=O)[O-])cc1[N+](=O)[O-])C(=O)C(C(=O)c1ccc(Cl)c(Cl)c1)C1OC(=O)c2ccccc21` (centres undefined): the GI50 was inactive: 27 µM.

Take `COC(=O)/C(=N/NC(C)(C)C)C(C(=O)C=C(C)C)C(=O)C(=O)Nc1ccc(Cl)cc1C` (centres undefined): the GI50 is inactive: > 100 µM.

Take `CC(Oc1ccc(Oc2cnc3ccc(Cl)cc3n2)cc1)C(=O)O` (centres undefined): the GI50 was inactive: > 100 µM.

For `CC(C)(C)OC(=O)N(CCCN)CCCCN(CCCN)C(=O)OC(C)(C)C`, the GI50 is inactive: > 100 µM.

For the compound `c1ccc(C2OC3(CCC[C@H]4C[C@H]43)O[C@H]2c2ccccc2)cc1` (some centres undefined), the GI50 is inactive: 70.3 µM.

For `C=CCOc1ccc(C2(O)c3ccccc3C3=NCCCN32)cc1` (centres undefined), the GI50 is inactive: 59.3 µM.

For `Cc1c(O)c(=O)ccn1C1OC(CO)C(O)C1O` (centres undefined), the GI50 was inactive: > 100 µM.
